Measured values: PubChem BioAssay AID504332 (National Center for Advancing Translational Sciences (NCATS), 2011)
Out of some 350,000 compounds screened, about 31,000 (8.9%) were called active. Inconclusive means that the source gave no clear call. Such entries were picked first, then a sample of the others. Calls follow the shape of the dose curve; as a rule, active = well fitted inhibition curve with a large enough effect; inconclusive = small, poorly fitted or top-dose-only effect; inactive = no such curve, though single readings can be large or run the other way. Where the call is inconclusive, the potency comes from a doubtful curve fit.

target: Histone-lysine N-methyltransferase EHMT2 (Homo sapiens) (UniProt Q96KQ7); test: qHTS Assay for Inhibitors of Histone Lysine Methyltransferase G9a; conditions: G9a H3K9 monomethylation, AlphaScreen, 2 h; activity, negative = inhibition: at 59 µM (top of the series) unless noted; also: nearly all actives have a fitted effect of over 75% in size
Outline: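 Readings reflect AlphaScreen signal from monomethyl-H3K9 antibody detection. HMT at 20 nM; substrate b-H3K9 500 nM; cofactor SAM 20 uM; 2 h RT reaction; compounds tested as titrations in qHTS with 15 min preincubation.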
% is scaled to controls: 0 for no effect and ±100 for the full control effect; potency is read from the fitted curve at half-maximal effect; tags tell the direction and shape of the fitted curve.

UniProt Q96KQ7, sequence (Q96KQ7 whole entry, looked up): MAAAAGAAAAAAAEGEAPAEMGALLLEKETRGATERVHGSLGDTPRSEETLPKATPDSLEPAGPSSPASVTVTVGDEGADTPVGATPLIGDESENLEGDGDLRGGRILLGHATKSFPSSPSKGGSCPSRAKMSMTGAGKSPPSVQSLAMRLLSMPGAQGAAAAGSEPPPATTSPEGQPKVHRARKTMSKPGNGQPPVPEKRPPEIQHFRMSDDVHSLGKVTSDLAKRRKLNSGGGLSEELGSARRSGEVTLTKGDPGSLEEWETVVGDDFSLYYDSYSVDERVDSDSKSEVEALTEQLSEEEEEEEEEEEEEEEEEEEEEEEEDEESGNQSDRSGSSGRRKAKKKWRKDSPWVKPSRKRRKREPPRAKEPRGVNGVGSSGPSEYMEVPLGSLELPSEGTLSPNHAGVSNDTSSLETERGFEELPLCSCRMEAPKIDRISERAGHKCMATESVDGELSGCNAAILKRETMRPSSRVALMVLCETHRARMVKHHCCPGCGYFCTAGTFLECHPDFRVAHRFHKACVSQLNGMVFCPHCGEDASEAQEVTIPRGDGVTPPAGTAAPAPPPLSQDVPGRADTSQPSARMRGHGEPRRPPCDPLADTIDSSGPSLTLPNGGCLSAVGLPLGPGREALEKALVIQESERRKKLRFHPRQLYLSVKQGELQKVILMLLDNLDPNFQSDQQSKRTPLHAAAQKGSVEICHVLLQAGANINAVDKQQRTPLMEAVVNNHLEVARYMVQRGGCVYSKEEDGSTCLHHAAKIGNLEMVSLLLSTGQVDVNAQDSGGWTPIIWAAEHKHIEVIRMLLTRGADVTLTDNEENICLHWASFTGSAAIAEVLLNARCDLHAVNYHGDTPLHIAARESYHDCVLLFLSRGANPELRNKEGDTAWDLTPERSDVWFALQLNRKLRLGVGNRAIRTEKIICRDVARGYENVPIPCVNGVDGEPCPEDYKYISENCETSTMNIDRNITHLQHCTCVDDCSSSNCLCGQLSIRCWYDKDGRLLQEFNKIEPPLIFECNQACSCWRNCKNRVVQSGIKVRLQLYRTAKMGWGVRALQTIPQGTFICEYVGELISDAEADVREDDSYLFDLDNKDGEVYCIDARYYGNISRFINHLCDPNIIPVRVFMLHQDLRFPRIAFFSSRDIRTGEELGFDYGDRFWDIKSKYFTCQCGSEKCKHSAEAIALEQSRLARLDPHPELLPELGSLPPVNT

SMILES | activity, negative = inhibition | Potency
CCOc1ccc(C(=O)NCC(=O)OCCCOC(=O)CNC(=O)c2ccc(OCC)cc2)cc1 | inactive: 42.2% [at 102 µM] | –
CCn1c(/C=C/c2c(C)[nH]c3ccccc23)nc2ccccc2c1=O | inactive: 7.38% | –
CCN1CCN(CC(=O)Nc2nc3ccc(C)cc3s2)CC1 | – | inconclusive: 79.4 µM [inhibitor, single point]
S=C(Nc1ccccc1)N1CCN(Cc2ccccc2)CC1 | inconclusive: -52.6% [inhibitor] | –
COc1cc(OC)c(OC)cc1/C=N/n1c(COc2ccccc2)n[nH]c1=S | – | inconclusive: 1.58 µM [inhibitor, full curve, poor fit]
OC(CNCC1CCCO1)Cn1c2ccccc2c2ccccc21 (centres undefined) | – | inconclusive: 89.1 µM [inhibitor, single point]
O=C(O)c1ccc2c(c1)C(=O)N(c1ncccn1)C2=O | – | inconclusive: 89.1 µM [inhibitor, single point]
O=S(=O)(c1cccs1)N1CN(CC2CCCO2)c2nc3ccccc3nc21 (centres undefined) | – | inconclusive: 28.2 µM [inhibitor, single point]
CSc1nnc(NC(=O)c2nc(S(=O)(=O)Cc3cccc(C)c3)ncc2Cl)s1 | – | active: 4.47 µM
S=C(NCc1ccccn1)Nc1ccc(Cl)cc1 | – | inconclusive: 89.1 µM [inhibitor, single point]
NS(=O)(=O)c1ccc(CCNC(=O)/C=C/c2ccc([N+](=O)[O-])cc2)cc1 | – | inconclusive: 56.2 µM [inhibitor, partial curve]
O=C(CN1C(=O)NC2(CCCCC2)C1=O)N1CCN(S(=O)(=O)c2ccc(F)c(F)c2F)CC1 | – | inconclusive: 70.8 µM [inhibitor, single point]
CCOC(=O)CC(=O)CSc1nc2ccc(C)cc2cc1C#N | – | inconclusive: 0.282 µM [inhibitor, partial curve, poor fit]
O=C(CSc1nc2scc(-c3ccco3)c2c(=O)n1-c1ccccc1)NCC1CCCO1 (centres undefined) | – | active: 8.91 µM
Cn1sc(NC(=O)c2ccccc2Cl)nc1=O | inconclusive: -124% [inhibitor] | –
Cc1ccc(NC(=O)C2COc3ccccc3O2)cc1S(=O)(=O)N1CCOCC1 (centres undefined) | – | inconclusive: 3.16 µM [inhibitor, single point]
FC(F)(F)c1cccc(N2CCC(N=CN3CCCCCC3)=N2)c1 | – | active: 39.8 µM
O=C(c1noc2c1CCCC2)N1CCc2ccccc2C1 | – | inconclusive: 39.8 µM [inhibitor, single point]
COCC(=O)N1CCC2(CCCN(C(=O)Nc3cccc(C#N)c3)C2)CC1 | inactive: -0.994% [at 12.7 µM] | –
CN(C(=O)COC(=O)c1cc(=O)[nH]c2ccccc12)C1CCCCC1 | inactive: -20.6% [at 2.33 µM] | –
Cc1ccc(-c2ccc(C3C(C#N)=C(N)Oc4n[nH]c(C)c43)o2)cc1 (centres undefined) | – | inconclusive: 15.8 µM [inhibitor, partial curve, poor fit]
CC(=O)Nc1ccc(Nc2ccc3cc(S(=O)(=O)N4CCCCC4)ccc3n2)cc1 | – | inconclusive: 12.6 µM [inhibitor, partial curve]

SMILES | activity, negative = inhibition | Potency
O=C(Nc1ccccc1C(F)(F)F)N1CCCCCC1 | inactive: -11.1% | –
O=c1c2cccnc2n(Cc2cccc(F)c2)c(=O)n1Cc1ccc(F)cc1 | inactive: 58.3% | –
Clc1cccc(CN2CCC(Cc3ccccc3)CC2)c1 | – | active: 3.55 µM
O=C(C1CC1)N1CCc2cc(Br)cc(S(=O)(=O)NCCCN3CCCC3)c21 | – | active: 50.1 µM
CCNC(=S)NNc1nc(N2CCOCC2)nc(N2CCOCC2)n1 | – | inconclusive: 0.501 µM [inhibitor, full curve, poor fit]
O=C(NCC(=O)N(c1cccnc1)C(C(=O)NC1CCCC1)c1ccc(F)cc1)c1ccco1 (centres undefined) | inactive: -3.25% [at 102 µM] | –
O=C(c1cccc(S(=O)(=O)N2CCN(c3ccc(F)cc3)CC2)c1)N1CCCCCCC1 | – | inconclusive: 89.1 µM [inhibitor, partial curve, poor fit]
COc1ccc(CNC(=O)C(C#N)c2nc3ccccc3nc2N2CCN(C)CC2)cc1 (centres undefined) | inconclusive: -93.8% [inhibitor] | –
COCC(=O)Nc1nnc(COc2ccc(Cl)cc2)s1 | inactive: -3.08% | –
CC(C)N(C(=S)Nc1cccc(S(=O)(=O)N(C)C)c1)c1ccccc1 | – | inconclusive: 50.1 µM [inhibitor, partial curve, poor fit]
CCc1ccc(/C=C2/SC(=S)N(CCC(=O)Nc3ccc(C(=O)O)cc3)C2=O)cc1 | inactive: 91.2% [at 102 µM] | –
COc1ccc2c(c1)c1c(c(=O)n(-c3cccc(C)c3)c(=O)n1CC(=O)NCCC1=CCCCC1)n2C | inactive: 8.59% | –
COc1ccccc1Nc1nc(-c2ccccc2)c(CC(=O)O)s1 | – | inconclusive: 39.8 µM [inhibitor, single point]
Cc1cccc(C)c1Nc1nnc(SC(C)C(=O)Nc2c(C)n(C)n(-c3ccccc3)c2=O)s1 (centres undefined) | – | inconclusive: 39.8 µM [inhibitor, single point]
NS(=O)(=O)c1ccc(N/C=C\C(=O)c2ccc3ccccc3c2)cc1 | – | active: 8.91 µM
CCOC(=O)C1=c2/c(=C/c3ccncc3)c(N)c(C(=O)OC)n2C(=O)C(c2ccncc2)S1 (centres undefined) | – | inconclusive: 50.1 µM [inhibitor, partial curve, poor fit]
CCC1(CC)NC(=O)N(CC(=O)NCc2ccc3c(c2)OCO3)C1=O | – | inconclusive: 39.8 µM [inhibitor, single point]
Cn1c(/C=N/NC(=O)c2ccccc2)nc2ccccc21 | – | inconclusive: 15.8 µM [inhibitor, partial curve, poor fit]
O=c1c(CN2CCN(c3cccc(Cl)c3)CC2)coc2c(Cl)cc(Cl)cc12 | – | inconclusive: 2.82 µM [inhibitor, partial curve, poor fit]
Cc1ccc(-c2nc(NC(=O)CSc3nnc4scc(-c5ccccc5)n34)ns2)cc1 | – | inconclusive: 1.41 µM [inhibitor, single point]
Cc1ccc(OCCC(=O)Nc2ccc(S(=O)(=O)Nc3nccs3)cc2)cc1 | inactive: 15% [at 12.7 µM] | –
Cc1ccc2c(CC(=O)Nc3c(C)n(C)n(-c4ccccc4)c3=O)coc2c1 | – | inconclusive: 1 µM [inhibitor, full curve, poor fit]
